{"source": "paper PMC4336329", "about": "(PLoS ONE, 2015)", "note": "The whole screen tested about 310,000 compounds, of which about 2,200 (0.71%) showed an effect of 50% or more. The effect is printed as a negative number. This is one part of the list.", "data": [{"biological_target": "human ether-à-go-go-related gene (hERG) potassium channel (human, UniProt Q12809)", "sequence (Q12809 whole entry, looked up)": "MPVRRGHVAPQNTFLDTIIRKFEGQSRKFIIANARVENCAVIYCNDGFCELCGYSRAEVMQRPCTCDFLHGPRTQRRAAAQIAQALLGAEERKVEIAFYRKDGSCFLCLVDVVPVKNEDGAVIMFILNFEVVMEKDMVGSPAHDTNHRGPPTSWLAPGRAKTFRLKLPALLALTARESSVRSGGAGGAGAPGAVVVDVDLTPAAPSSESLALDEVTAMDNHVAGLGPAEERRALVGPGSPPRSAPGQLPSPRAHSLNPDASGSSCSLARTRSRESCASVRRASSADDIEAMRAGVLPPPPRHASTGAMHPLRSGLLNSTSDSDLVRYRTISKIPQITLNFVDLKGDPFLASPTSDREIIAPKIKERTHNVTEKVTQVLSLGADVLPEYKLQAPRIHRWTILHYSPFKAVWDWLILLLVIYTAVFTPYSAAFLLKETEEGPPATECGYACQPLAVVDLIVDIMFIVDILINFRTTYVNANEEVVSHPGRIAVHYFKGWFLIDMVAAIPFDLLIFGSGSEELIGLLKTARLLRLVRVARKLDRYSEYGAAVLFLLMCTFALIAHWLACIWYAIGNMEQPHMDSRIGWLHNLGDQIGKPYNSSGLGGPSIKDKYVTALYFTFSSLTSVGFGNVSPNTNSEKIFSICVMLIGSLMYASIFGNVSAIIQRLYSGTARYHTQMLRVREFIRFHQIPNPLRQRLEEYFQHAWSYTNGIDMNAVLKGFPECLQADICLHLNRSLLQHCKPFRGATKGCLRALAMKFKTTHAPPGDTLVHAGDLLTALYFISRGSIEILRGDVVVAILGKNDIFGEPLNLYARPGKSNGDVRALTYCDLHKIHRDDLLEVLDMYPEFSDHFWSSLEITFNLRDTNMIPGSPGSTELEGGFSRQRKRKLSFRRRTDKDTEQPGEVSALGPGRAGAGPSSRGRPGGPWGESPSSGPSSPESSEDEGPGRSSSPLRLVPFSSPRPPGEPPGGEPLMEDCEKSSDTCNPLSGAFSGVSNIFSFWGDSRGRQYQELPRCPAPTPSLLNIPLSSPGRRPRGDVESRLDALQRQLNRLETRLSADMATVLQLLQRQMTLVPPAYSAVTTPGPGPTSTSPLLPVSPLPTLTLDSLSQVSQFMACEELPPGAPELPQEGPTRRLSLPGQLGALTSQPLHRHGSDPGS", "assay": "primary screen, population patch clamp on CHO cells stably expressing hERG", "units": {"hERG current change (%, negative = inhibition) at 1uM": "%"}, "values": [{"smiles": "CCN(CC)C(=O)CSc1nc(C)cc(C)n1", "hERG current change (%, negative = inhibition) at 1uM": 11.5}, {"smiles": "CCC(C)n1c(-c2cc(OC)c(OC)c(OC)c2)nc2nc3ccccc3nc21", "note": "(centres unmarked)", "hERG current change (%, negative = inhibition) at 1uM": 0.431}, {"smiles": "O=c1[nH]cccc1-c1nc2ccccc2[nH]1", "hERG current change (%, negative = inhibition) at 1uM": 13.1}, {"smiles": "CCC1Oc2ccccc2N(CC(=O)NC2CCCCC2C)C1=O", "note": "(centres unmarked)", "hERG current change (%, negative = inhibition) at 1uM": 18.7}, {"smiles": "Brc1ccc(Cn2c(-c3cncs3)nc3ccccc32)cc1", "hERG current change (%, negative = inhibition) at 1uM": 6.24}, {"smiles": "COC(=O)[C@H](CCSC)NC(=O)Nc1ccc(C)cc1C", "hERG current change (%, negative = inhibition) at 1uM": 12.8}, {"smiles": "O=C(CCCN1C(=O)CCC1=O)Nc1ccc2c(c1)OCCO2", "hERG current change (%, negative = inhibition) at 1uM": 4.6}, {"smiles": "CCOC(=O)C1=C(c2ccccc2)O/C(=C(/C#N)C(F)(F)F)S1", "hERG current change (%, negative = inhibition) at 1uM": 14.2}, {"smiles": "CC(C)c1onc(C(=O)NCc2ccccn2)c1[N+](=O)[O-]", "hERG current change (%, negative = inhibition) at 1uM": 1.69}, {"smiles": "Cc1ccc(N2C(=O)c3cccc4c(Oc5ccccc5[N+](=O)[O-])ccc(c34)C2=O)c(C)c1", "hERG current change (%, negative = inhibition) at 1uM": 7.31}, {"smiles": "N#CC(CC(=O)c1ccc(F)cc1)c1ccc2c(c1)OCO2", "note": "(centres unmarked)", "hERG current change (%, negative = inhibition) at 1uM": 12.5}, {"smiles": "CCN(CC)CCNC(=O)CN1C(=O)COc2ccc(S(=O)(=O)N3CCOCC3)cc21", "hERG current change (%, negative = inhibition) at 1uM": 11.2}, {"smiles": "Cc1ccc(/C=C/C(=O)NCCc2cccc(Cl)c2)o1", "hERG current change (%, negative = inhibition) at 1uM": 5.9}, {"smiles": "CC1(C)C2([N+](=O)[O-])CN3CN(C2)CC1([N+](=O)[O-])C3", "hERG current change (%, negative = inhibition) at 1uM": 10.9}, {"smiles": "O=C(Cc1ccc([N+](=O)[O-])cc1)OCc1c(F)cccc1Cl", "hERG current change (%, negative = inhibition) at 1uM": 14.7}, {"smiles": "Cc1ccc(S(=O)(=O)N2CCN(C(=O)CCC(=O)NCc3ccc(F)cc3)CC2)cc1", "hERG current change (%, negative = inhibition) at 1uM": -7.78}, {"smiles": "Cc1cccnc1NC1(C(F)(F)F)N=C(c2ccccc2)NC1=O", "note": "(centres unmarked)", "hERG current change (%, negative = inhibition) at 1uM": -1.99}, {"smiles": "COC(=O)c1ccc(S(=O)(=O)N2C3CCC2CC(NC(=O)C2CC2)C3)cc1", "note": "(centres unmarked)", "hERG current change (%, negative = inhibition) at 1uM": 10.6}, {"smiles": "Cl.NC(N)=NCCCC(NC(=O)c1ccccc1)C(=O)Nc1ccc([N+](=O)[O-])cc1", "note": "(centres unmarked)", "hERG current change (%, negative = inhibition) at 1uM": 13}, {"smiles": "COc1ccc(/C=N/n2c(N)c(S(=O)(=O)c3cccs3)c3nc4ccccc4nc32)cc1OC", "hERG current change (%, negative = inhibition) at 1uM": 18.1}, {"smiles": "CCCCc1ccc(C(=O)NC(C(=O)O)C(C)C)cc1", "note": "(centres unmarked)", "hERG current change (%, negative = inhibition) at 1uM": 16.1}, {"smiles": "CCOC(=O)N1CCN(S(=O)(=O)c2ccc(OC)cc2)CC1", "hERG current change (%, negative = inhibition) at 1uM": 7.63}, {"smiles": "Cc1ccc2nc(Cl)c3nnnn3c2c1", "hERG current change (%, negative = inhibition) at 1uM": 1.13}, {"smiles": "COc1ccc(C)cc1NC(=O)Nc1cccc(C(=O)O)c1", "hERG current change (%, negative = inhibition) at 1uM": 10.7}, {"smiles": "Cc1ccc(CN2CCN(Cc3ccc(OC(C)C)cc3)CC2CCO)o1", "note": "(centres unmarked)", "hERG current change (%, negative = inhibition) at 1uM": -7.31}, {"smiles": "O=c1[nH]c(CN2CCN(c3ccc(O)cc3)CC2)nc2scc(-c3ccc(Cl)cc3)c12", "hERG current change (%, negative = inhibition) at 1uM": 0.484}, {"smiles": "Cc1ccc(NC(=O)c2sc3ncn(CC(=O)N4CCN(c5ccccn5)CC4)c(=O)c3c2C)cc1Cl", "hERG current change (%, negative = inhibition) at 1uM": 10.5}, {"smiles": "CCCOc1ccc(CCc2n[nH]c(=S)n2-c2ccccc2)cc1", "hERG current change (%, negative = inhibition) at 1uM": 7.74}, {"smiles": "CCOC(=O)C1CCCN(c2cc(=O)n(Cc3ccc(F)cc3)c(=O)[nH]2)C1", "note": "(centres unmarked)", "hERG current change (%, negative = inhibition) at 1uM": -6.54}, {"smiles": "O=C(NC(=S)Nc1ccc(N2CCCCC2)c(Cl)c1)c1ccc2c(c1)OCCO2", "hERG current change (%, negative = inhibition) at 1uM": 13.4}, {"smiles": "COC1CCCN(C(=O)c2ccc3nc(Cc4cccc(Cl)c4)oc3c2)C1", "note": "(centres unmarked)", "hERG current change (%, negative = inhibition) at 1uM": 9.46}, {"smiles": "Cc1ccc(OCc2cc(C(=O)N(C)Cc3cnc4ccccn34)no2)cc1C", "hERG current change (%, negative = inhibition) at 1uM": 2.9}, {"smiles": "c1ccc(Oc2ncnc3sccc23)cc1", "hERG current change (%, negative = inhibition) at 1uM": 16.3}, {"smiles": "CC1(c2nnc(-c3cccc(Cl)c3)o2)CC(c2ccccc2Br)=NO1", "note": "(centres unmarked)", "hERG current change (%, negative = inhibition) at 1uM": 1.19}, {"smiles": "Cc1cc(C(=O)O)ccc1N=Cc1c(O)ccc2ccccc12", "hERG current change (%, negative = inhibition) at 1uM": 9.88}, {"smiles": "CCOC(=O)CSc1nc(C)cc2c1C(=O)OC2", "hERG current change (%, negative = inhibition) at 1uM": 4.41}, {"smiles": "Cn1c(=O)c2c(SCc3ccccn3)nc(C3CC3)nc2n(C)c1=O", "hERG current change (%, negative = inhibition) at 1uM": 12.1}, {"smiles": "N#C/C(=C(/O)COc1ccc(Br)cc1)c1nnc2n1CCCCC2", "hERG current change (%, negative = inhibition) at 1uM": 2.1}, {"smiles": "O=C(COc1ccccc1)Nc1nnc(S(=O)(=O)N2CCCCCC2)s1", "hERG current change (%, negative = inhibition) at 1uM": -11.7}, {"smiles": "CC(=O)Nc1cnc(NC(=O)c2cccc(F)c2)cc1C", "hERG current change (%, negative = inhibition) at 1uM": 12}, {"smiles": "O=C(CN1C(=O)C2CCCCC2C1=O)Nc1cc(C(F)(F)F)ccc1N1CCCC1", "note": "(centres unmarked)", "hERG current change (%, negative = inhibition) at 1uM": 15.4}, {"smiles": "CCOC(=O)c1sc(NS(=O)(=O)c2ccccc2Cl)nc1C", "hERG current change (%, negative = inhibition) at 1uM": 6.75}, {"smiles": "CCOc1ccc(NC(=O)Cn2c(=O)n(CCCC(=O)NC3CCN(Cc4ccccc4)CC3)c(=O)c3ccccc32)cc1", "hERG current change (%, negative = inhibition) at 1uM": -5.36}, {"smiles": "C/C(=N\\NC(=O)c1c(Cl)cnn1C)c1ccc(NC(=O)c2ccncc2)cc1", "hERG current change (%, negative = inhibition) at 1uM": 9.51}, {"smiles": "CCOC(=O)C1CCN(C(=O)c2cn(CCOC)c(=O)c3c2c2ccccc2n3C)CC1", "hERG current change (%, negative = inhibition) at 1uM": -5.83}, {"smiles": "CCOC(=O)c1cnc(-n2nc(C)cc2C)nc1-n1nc(C)cc1C", "hERG current change (%, negative = inhibition) at 1uM": -1.61}, {"smiles": "CC(=O)Nc1ccc(S(=O)(=O)N2CCN(c3cc(C)nc4ncnn34)CC2)cc1", "hERG current change (%, negative = inhibition) at 1uM": -9.05}, {"smiles": "COc1ccc(C(=O)Nc2ccc(NC(=O)C(C)C)nc2)cc1", "hERG current change (%, negative = inhibition) at 1uM": 7.42}, {"smiles": "Cc1cc(-c2ccccc2)nc(SCc2ccc(C(=O)O)o2)n1", "hERG current change (%, negative = inhibition) at 1uM": 1.35}, {"smiles": "CC(C)N1C(=O)C2C(C(=O)NC3CCCCC3)C3C=CC2(O3)C1C(=O)NC1CCCC1", "note": "(centres unmarked)", "hERG current change (%, negative = inhibition) at 1uM": 4.71}, {"smiles": "CCCCc1nc2c(C)c(N)cnc2n1Cc1cccc([N+](=O)[O-])c1", "hERG current change (%, negative = inhibition) at 1uM": 5.37}, {"smiles": "CS(=O)(=O)N(CC(=O)N1CCCC1)Cc1ccccc1", "hERG current change (%, negative = inhibition) at 1uM": 9.01}, {"smiles": "COc1ccc(CCNC(=O)C2CCCN(S(C)(=O)=O)C2)cc1", "note": "(centres unmarked)", "hERG current change (%, negative = inhibition) at 1uM": 1.53}, {"smiles": "O=C(Cc1ccc(S(=O)(=O)N2CCCC2)s1)NC1CCCCCC1", "hERG current change (%, negative = inhibition) at 1uM": -10.3}, {"smiles": "CSc1ncc(C(=O)Nc2ccc(C(C)=O)cc2)c(-c2ccccc2)n1", "hERG current change (%, negative = inhibition) at 1uM": 7.32}, {"smiles": "COc1cc2[nH]c3ccccc3c2cc1C", "hERG current change (%, negative = inhibition) at 1uM": 10.5}]}]}
